# Measured values published in PubChem BioAssay (Tox21).
# This list was built around the results that the source calls inconclusive (neither active nor inactive); the mix of calls is not that of the screen. For some of these results: A potency beside an inconclusive call is a rough fit, not a confirmed value. The source made the active and inactive calls. Unless noted, the call rests on the fitted dose curve.
# Legend:
# [1] = p53 small molecule agonists, cell-based qHTS assay (AID 1963582; active means well fitted activation curve with a large enough effect in the signal ratio in the repeat runs, not every such curve was filed as active; inconclusive means weak or mixed curves; the % refers to the signal ratio; further: potency means the concentration at half of the fitted maximal effect; on activation: on the % scale 0 is the no-effect control and ±100 the full control effect); settings: HCT-116 p53RE-bla reporter, beta-lactamase FRET ratio, 16 h; activation: at 66 µM (top of the series) unless noted
# How it was run: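 p53RE-bla beta-lactamase reporter cells rested 5 h at 37 C/5% CO2, then received compounds in DMSO by pin transfer and were incubated 16 h at 37 C. LiveBLAzer B/G FRET substrate was loaded for 2 h at room temperature before fluorescence reading.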
# [2] = cAMP Responsive Elements (CRE) small molecule agonists, cell-based qHTS assay (AID 1963590); settings: CRE-bla HEK293T, beta-lactamase FRET ratio, 3 h; activation: at 92.4 µM (top of the series) unless noted; further: potency means the concentration at half of the fitted maximal effect
# How it was run: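 CRE-bla HEK 293T cells in DMEM with 10% dialyzed FBS, NEAA, pyruvate and 25 mM HEPES were plated 18 h at 37 C/5% CO2, then exposed to compounds in DMSO for 3 h before LiveBLAzer B/G FRET substrate addition.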
# [3] = target: Beta-2 adrenergic receptor (Homo sapiens) (UniProt P07550); test: Adrenergic beta2 receptor (ADRB2) small molecule agonists, cell-based qHTS assay (AID 1963593); settings: CHO-ADRB2 cells, cAMP HTRF, 30 min; further: potency means the concentration at half of the fitted maximal effect;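 on activation: CHO cells stably overexpressing human ADRB2; on the % scale 0 is the no-effect control and ±100 the full control effect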
# UniProt P07550, sequence (P07550 whole entry, looked up): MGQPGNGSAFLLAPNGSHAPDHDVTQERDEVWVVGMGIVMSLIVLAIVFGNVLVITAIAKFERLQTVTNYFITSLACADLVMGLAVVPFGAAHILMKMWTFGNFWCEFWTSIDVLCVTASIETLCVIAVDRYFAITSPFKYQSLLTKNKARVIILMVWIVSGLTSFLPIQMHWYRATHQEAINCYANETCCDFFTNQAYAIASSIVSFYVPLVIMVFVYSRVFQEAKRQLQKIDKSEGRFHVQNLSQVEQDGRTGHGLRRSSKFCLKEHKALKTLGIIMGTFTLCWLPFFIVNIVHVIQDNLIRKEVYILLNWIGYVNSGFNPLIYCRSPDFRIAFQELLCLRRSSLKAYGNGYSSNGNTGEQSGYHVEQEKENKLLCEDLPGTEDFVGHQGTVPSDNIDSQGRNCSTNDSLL
# How it was run: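 CHO cells stably over-expressing ADRB2 were plated overnight at 37C, then dosed with compounds plus a stimulation mix containing 100uM IBMX and 25uM Ro-20-1724 for 0.5hr at room temperature. cAMP was measured by HTRF competition, 1hr.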
# [4] = cAMP Responsive Elements (CRE) small molecule antagonists, cell-based qHTS assay (AID 1963591; active means well fitted inhibition curve with a large enough effect in the signal ratio in the repeat runs, not every such curve was filed as active; inconclusive means weak or mixed curves, or effect the other way; the % refers to the signal ratio; further: potency means the concentration at half of the fitted maximal effect); settings: CRE-bla HEK293T, beta-lactamase FRET ratio; activity change, negative = inhibition: at 92.4 µM (top of the series) unless noted
# How it was run: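 CRE-bla HEK293T cells were plated 18 h at 37 °C/5% CO2, pinned with compound in DMSO, then stimulated with NKH477 at 0.25 uM final for 3 h. LiveBLAzer B/G FRET substrate was added and plates incubated 2 h at room temperature.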
# [5] = target: Beta-2 adrenergic receptor (Homo sapiens) (UniProt P07550); test: Adrenergic beta2 receptor (ADRB2) small molecule antagonists, cell-based qHTS assay (AID 1963592); settings: CHO-ADRB2 cells, isoproterenol-stimulated cAMP HTRF ratio, 0.5 h; activity change, negative = inhibition: at 92.4 µM (top of the series) unless noted; further: nearly all actives have a fitted effect of over 50% in size; further: potency means the concentration at half of the fitted maximal effect; on activity change, negative = inhibition: on the % scale 0 is the no-effect control and ±100 the full control effect
# How it was run: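 Cells (CHO, stable ADRB2 overexpression) incubated 18-20hr at 37C; compounds added from DMSO; agonist mix (1nM isoproterenol, 100uM IBMX, 25uM Ro-20-1724) added; 0.5hr RT; d2-cAMP and anti-cAMP-cryptate added; 1hr RT; 665/615 nm read.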
# [6] = target: D(2) dopamine receptor (Homo sapiens) (UniProt P14416); test: Dopamine D2 receptor (DRD2) small molecule antagonists, cell-based qHTS assay (AID 1963595; active means well fitted inhibition curve with a large enough effect in the signal ratio in the repeat runs, with a control signal flat; inconclusive means weak or mixed curves, or effect the other way; the % refers to the signal ratio; further: on the % scale 0 is the no-effect control and ±100 the full control effect); settings: HEK293-DRD2 cAMP HTRF antagonist mode; activity change, negative = inhibition: at 92.4 µM (top of the series) unless noted
# UniProt P14416, sequence (P14416 whole entry, looked up): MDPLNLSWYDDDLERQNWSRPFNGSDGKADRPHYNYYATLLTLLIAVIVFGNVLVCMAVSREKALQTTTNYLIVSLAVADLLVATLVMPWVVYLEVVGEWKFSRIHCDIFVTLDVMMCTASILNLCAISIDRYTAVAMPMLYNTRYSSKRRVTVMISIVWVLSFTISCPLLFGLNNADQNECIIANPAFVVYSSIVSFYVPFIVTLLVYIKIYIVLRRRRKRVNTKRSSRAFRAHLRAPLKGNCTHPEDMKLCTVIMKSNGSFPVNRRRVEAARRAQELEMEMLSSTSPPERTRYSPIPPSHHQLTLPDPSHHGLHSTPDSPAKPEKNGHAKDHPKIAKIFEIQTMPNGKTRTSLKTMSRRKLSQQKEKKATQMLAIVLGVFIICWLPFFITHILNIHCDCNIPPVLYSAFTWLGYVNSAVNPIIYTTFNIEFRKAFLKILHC
# How it was run: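 HEK293 cells stably expressing DRD2 were preincubated with 0.1 mM Ro20-1724, then with compound for 10 min at room temperature. Cells were stimulated with 200 nM NKH477 plus 12 nM quinpirole for 30 min, and cAMP was read by HTRF.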
# [7] = target: D(2) dopamine receptor (Homo sapiens) (UniProt P14416); test: Dopamine D2 receptor (DRD2) small molecule agonists, cell-based qHTS assay (AID 1963594); settings: HEK293-DRD2 cAMP HTRF, agonist mode, 30 min; activation: at 92.4 µM (top of the series) unless noted; further: on the % scale 0 is the no-effect control and ±100 the full control effect; nearly all actives have a fitted effect of over 35% in size
# How it was run: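 HEK293 cells stably expressing DRD2 were cultured 24 h at 37 C, then given Ro20-1724 (0.1 mM final) and compounds for 10 min at room temperature. NKH477 (200nM) was then added for 30 min. cAMP was read by HTRF.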
# [8] = activation: at 92.4 µM (top of the series) unless noted
# Tags describe the fitted curve by direction and shape or compound fluorescence and quenching.
structure (smiles),measurement,setting,value
COc1ccc(C(=O)c2ccc(OC)cc2O)c(O)c1,activation,[1],inconclusive: 11.1%
same,Potency,[2],"inconclusive: 27.5 µM [rising, partial curve]"
same,activation,[3]; [8],inconclusive: -61.6%
OCCSc1ccccc1,Potency,[1],"inconclusive: 40.8 µM [rising, partial curve]"
same,Potency,[4],"inconclusive: 77 µM [activator, partial curve, poor fit]"
CCCCCCC(C)(C)C(=O)O,Potency,[1],inactive
same,Potency,[5],inactive
CC(=O)C1C(=O)C=C(C)OC1=O (configuration not stated),Potency,[1],inactive
same,Potency,[4],inactive
same,Potency,[3]; [8],"inconclusive: 30.6 µM [inhibitor, full curve, poor fit]"
O=C(c1ccccc1)c1ccc2n1CCC2C(=O)O (configuration not stated),Potency,[1],"inconclusive: 15.8 µM [rising, partial curve, poor fit]"
same,Potency,[4],"inconclusive: 33.5 µM [fluorescent, partial curve, poor fit]"
same,activation,[3]; [8],inconclusive: -24.8% [at 42.5 µM]
Nc1ccc2cc(S(=O)(=O)O)ccc2c1,Potency,[1],"inconclusive: 36.3 µM [rising, partial curve, poor fit]"
same,Potency,[4],inactive
same,Potency,[3]; [8],"inconclusive: 0.433 µM [inhibitor, partial curve, poor fit]"
same,"activity change, negative = inhibition",[6],inconclusive: -5.67%
CCCOC(=O)c1ccccc1,Potency,[1],inactive
same,Potency,[4],"inconclusive: 68.6 µM [activator, single point]"
same,activation,[3]; at 42.5 µM (top of the series),inconclusive: 14.4%
same,activation,[3]; at 92.4 µM (top of the series),inconclusive: 2.36%
CCCCCCCCN(C)C,Potency,[1],inactive
same,Potency,[5],inactive
same,Potency,[3]; [8],inactive
CC(C)(C)NC[C@H](O)COc1cccc2c1CCCC2=O,Potency,[1],inactive
same,"activity change, negative = inhibition",[5],inconclusive: -83.5% [at 42.5 µM]
same,activation,[3]; [8],inconclusive: -130% [at 42.5 µM]
C/C(=N\[Si](C)(C)C)O[Si](C)(C)C,Potency,[1],inactive
same,Potency,[4],inactive
same,activation,[3]; [8],inconclusive: -2.98%
Fc1ccc([C@@H]2CCNC[C@H]2COc2ccc3c(c2)OCO3)cc1,Potency,[1],"inconclusive: 25.1 µM [falling, partial curve, poor fit]"
same,Potency,[4],inactive
same,Potency,[3]; [8],"inconclusive: 7.5 µM [inhibitor, full curve, poor fit]"
same,activation,[7],inconclusive: -2.11% [at 42.5 µM]
COc1ccccc1OCC(O)CO (configuration not stated),Potency,[1],"inconclusive: 0.89 µM [falling, single point]"
same,Potency,[5],inactive
same,activation,[3]; [8],inconclusive: 4.53%
same,activation,[3]; at 42.5 µM (top of the series),inactive: -11.7%
CCC(=O)OC/C=C/c1ccccc1,Potency,[1],"inconclusive: 0.725 µM [falling, single point]"
same,Potency,[4],inactive
same,activation,[3]; [8],inconclusive: -28.3%
same,activation,[3]; at 92.4 µM (top of the series),inactive: 10.3%
OC[C@@H](O)[C@H](O)[C@H](O)[C@@H](O)CO,Potency,[1],inactive
same,Potency,[4],inactive
same,activation,[3]; [8],inconclusive: -14.5% [at 42.5 µM]
Brc1c(NC2=NCCN2)ccc2nccnc12,Potency,[1],inactive
same,Potency,[4],inactive
same,Potency,[3]; [8],inactive
CC(C)c1ccc(C(C)C)cc1,Potency,[1],"inconclusive: 0.0032 µM [rising, full curve, poor fit]"
same,Potency,[5],inactive
same,Potency,[3]; [8],inactive
CC(C)NC(=O)c1ccccc1N,Potency,[1],inactive
same,Potency,[4],inactive
same,activation,[3]; [8],inconclusive: -6.25%
CCCCCCCC(=O)O,Potency,[1],"inconclusive: 12.4 µM [rising, partial curve, poor fit]"
same,Potency,[4],inactive
same,Potency,[3]; [8],"inconclusive: 0.209 µM [inhibitor, single point]"
same,activation,[3]; [8],inconclusive: -0.752%
O=c1cc(CO)occ1O,Potency,[1],inactive
same,Potency,[4],inactive
same,Potency,[3]; [8],inactive
Cc1ccncc1,Potency,[1],"inconclusive: 18.9 µM [falling, partial curve, poor fit]"
same,Potency,[4],inactive
same,Potency,[3]; [8],"inconclusive: 0.0109 µM [rising, full curve, poor fit]"
same,activation,[3]; [8],inconclusive: 56.9%
N#CSCC(=O)O,Potency,[1],inactive
same,Potency,[4],inactive
same,Potency,[3]; [8],"inconclusive: 0.0019 µM [falling, full curve, poor fit]"
CC(=O)C(C)C,Potency,[1],"inconclusive: 37.7 µM [falling, partial curve, poor fit]"
same,"activity change, negative = inhibition",[5],inconclusive: 2.1%
same,activation,[3]; [8],inconclusive: -0.481%
same,activation,[3]; at 92.4 µM (top of the series),inactive: 9.22%
C=C(C)C(=O)OCC(C)C,Potency,[1],inactive
same,"activity change, negative = inhibition",[5],inconclusive: -15.8%
same,activation,[3]; [8],inconclusive: -17.9%
same,activation,[3]; at 92.4 µM (top of the series),inactive: 26.1%
CCOC(=O)[C@H](CCc1ccccc1)N[C@@H](C)C(=O)N1[C@H](C(=O)O)C[C@@H]2CCC[C@@H]21,Potency,[1],inactive
same,Potency,[5],"inconclusive: 26.6 µM [inhibitor, single point]"
same,activation,[3]; [8],inconclusive: -29.7% [at 42.5 µM]
Oc1ccc(Cl)c2cccnc12,Potency,[1],inactive
same,Potency,[4],"inconclusive: 23.7 µM [inhibitor, partial curve, poor fit]"
same,Potency,[3]; [8],inactive
